Source: PubChem BioAssay AID485367 (National Center for Advancing Translational Sciences (NCATS), 2010)
Hit rate of the full screen: of about 330,000 compounds, about 560 (0.17%) were called active. The shares of active, inactive and inconclusive entries below differ from those in the screen. Calls come from the whole dose curve; as a rule, active = well fitted inhibition curve with a large enough effect; inconclusive = small, poorly fitted or top-dose-only effect, or effect the other way; inactive = flat fitted curve, though single readings scatter. No potency is given beside an inconclusive call; the fits are too rough.

target: ATP-dependent 6-phosphofructokinase (Trypanosoma brucei brucei) (UniProt O15648); assay: qHTS Assay to Find Inhibitors of T. brucei phosphofructokinase; note: nearly all actives have a fitted effect of over 60% in size;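 for activity, negative = inhibition: 0% = uninhibited 1x PFK enzyme wells and -100% = no-enzyme wells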; conditions: T. brucei PFK, ADP-Glo luminescence; activity, negative = inhibition: at 57.5 µM (top of the series)
Summary of the method: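 PFK 1.25 nM, F6P 0.5 mM, ATP 0.1 mM, 0.1 M TEA pH 8.0, 5 mM MgCl2, 0.01% Tween20, 0.1% BSA; 45 min RT. ADP-Glo readout. qHTS titration up to 57 uM; curves fitted, compounds curve-classed.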
Potency is the fitted concentration of half-maximal effect; tags give direction and shape of the fitted curve.

Sequence of UniProt O15648 (O15648 whole entry, looked up): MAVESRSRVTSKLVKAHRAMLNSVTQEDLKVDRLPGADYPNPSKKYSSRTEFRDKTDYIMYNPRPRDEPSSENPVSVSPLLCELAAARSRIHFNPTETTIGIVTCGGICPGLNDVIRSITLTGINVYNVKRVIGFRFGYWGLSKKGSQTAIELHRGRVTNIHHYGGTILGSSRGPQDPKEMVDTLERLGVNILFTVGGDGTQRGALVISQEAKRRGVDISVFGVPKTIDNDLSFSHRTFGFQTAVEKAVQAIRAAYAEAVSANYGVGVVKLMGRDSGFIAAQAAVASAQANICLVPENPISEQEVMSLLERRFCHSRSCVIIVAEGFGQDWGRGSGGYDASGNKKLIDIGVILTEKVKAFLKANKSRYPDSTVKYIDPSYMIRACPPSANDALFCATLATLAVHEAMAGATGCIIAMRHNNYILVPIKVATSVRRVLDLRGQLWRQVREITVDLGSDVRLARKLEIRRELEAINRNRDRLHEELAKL

Structure (SMILES) | Potency | activity, negative = inhibition
O=C(COc1ccc(Cl)cc1Cl)Nc1ccccn1 | active: 16.9 µM | –
COc1ccccc1NS(=O)(=O)c1cc(NC(=O)c2[nH]c(C)c(C(C)=O)c2C)ccc1N1CCOCC1 | inactive | –
CCCn1c(NC(=O)c2ccc(C)cc2)nc2ccccc21 | inactive | –
CSc1ccc(/C=C/C(=O)c2ccc(NC(=O)C(C)C)cc2)cc1 | inactive | –
CCOC(=O)C(C)c1nc2ccccc2[nH]c1=O (stereo not given) | inconclusive [activator, partial curve, poor fit] | –
N#CC1=C(N)Oc2n[nH]c(-c3ccccc3)c2C1c1ccsc1 (stereo not given) | inactive | –
CC(N=Cc1cc([N+](=O)[O-])ccc1O)c1ccccc1 (stereo not given) | inconclusive [falling, single point] | –
COCCn1nnnc1C(c1cc2cc(OC)ccc2[nH]c1=O)N1CCC(Cc2ccccc2)CC1 (stereo not given) | inconclusive [falling, single point] | –
O=C(c1ccc(F)cc1)c1cc2ccc(O)cc2oc1=O | inactive | –
CN(CC(=O)O)S(=O)(=O)c1cc(Cl)ccc1Cl | inconclusive [falling, single point] | –
COc1ccc(C(=O)OCC(=O)Nc2ccc3[nH]c(=O)[nH]c3c2)c(OC)c1OC | active: 21.3 µM | –
CC(=O)OCC1=C(C(=O)O)N2C(=O)[C@@H](NC(=O)CSc3ccncc3)[C@H]2SC1 | inconclusive [falling, partial curve, poor fit] | –
O=c1[nH]c2ccc(S(=O)(=O)N3CCN(c4ccccc4)CC3)cc2[nH]c1=O | inconclusive [falling, single point] | –
Cc1sc2nc(CC(=O)N3CCCC3)[nH]c(=O)c2c1C | inactive | –
O=C(c1ccc(OC2CCN(CCc3ccccc3)CC2)cc1)N1CCCCC1CCCO (stereo not given) | inconclusive [falling, single point] | –
Cc1c(NC(=O)CSc2ccccc2F)c(=O)n(-c2ccccc2)n1C | inconclusive [activator, single point] | –
CCCn1c(SCC(=O)NC2CCC(C)CC2)n[nH]c1=O (stereo not given) | inactive | –
COCCCN(C(=O)c1cc(-c2ccco2)nc2ccccc12)c1c(N)n(Cc2ccccc2)c(=O)[nH]c1=O | inconclusive [falling, single point] | –
COc1cc(/C=C(\C#N)c2nc3ccc(C)cc3[nH]2)c([N+](=O)[O-])cc1OC | inactive | –
O=C(CCc1nc(-c2ccccc2)no1)N1CCCC1 | inactive | –
Cc1cc(S(=O)(=O)Nc2ccc3c(c2)COC3=O)ccc1F | inactive | –
Cc1cccc(C)c1NC(=O)N1CC=CCC1 | inconclusive [falling, single point] | –
N#Cc1c(N2CCOCC2)nsc1-c1ccc(C(F)(F)F)cc1 | inactive | –

Structure (SMILES) | Potency | activity, negative = inhibition
COc1ccc(CNc2ncnc3cc(OC)c(OC)cc23)cc1 | inconclusive [activator, full curve, poor fit] | –
COc1ccc(S(=O)(=O)Cc2ccc(C(=O)NCc3cccnc3)o2)cc1 | inactive | –
Clc1ccc(CNCCCSc2ncccn2)cc1Cl | active: 15.1 µM | –
Cc1ccc(/C=C/C(=O)N2CCN(S(=O)(=O)c3c(C)c(C)cc(C)c3C)CC2)o1 | inconclusive [falling, single point] | –
Cc1ccc(-n2c(SCC(=O)Nc3ccc4c5c(cccc35)CC4)nc(O)c(C)c2=O)cc1 | inactive | –
CCN(C(=O)CN(C)Cc1c(F)cccc1Cl)c1c(N)n(Cc2ccccc2)c(=O)[nH]c1=O | inconclusive [falling, single point] | –
C#CCOCCOCCOCCNc1nc(N2CCN(C(=O)CCCCCCCCCCNC(=O)[C@H]([C@@H](C)CC)n3cc(CCCCN=C(N)N)nn3)CC2)nc(N2CCN(C(=O)CCCCCCCCCCNC(=O)[C@H](CO)n3cc(CCCSC)nn3)CC2)n1 | – | inconclusive: 144% [activator]
O=C(COc1ccc(F)c(Cl)c1)Nc1ccc(N2CCOCC2)cc1 | inconclusive [falling, single point] | –
COc1cc2c(cc1OC)CN(C(=O)COc1ccccc1[N+](=O)[O-])CC2 | inconclusive [falling, partial curve] | –
COc1ccc(CC(=O)OCC(=O)Nc2ccc3[nH]c(=O)[nH]c3c2)cc1 | inconclusive [falling, single point] | –
COc1ccc(C2/C=C\CN(C(=O)C3CCCCC3)CC(=O)N2Cc2ccc(F)cc2)cc1 (stereo not given) | inconclusive [falling, single point] | –
O=c1[nH]ncc(NCc2ccc(Cl)cc2)c1Cl | inconclusive [falling, single point] | –
Cc1cc(NC(=O)c2ccccc2)ncc1NC(=O)c1ccco1 | inconclusive [falling, single point] | –
Fc1ccc(-c2ccc(/C=N\n3cnnc3)o2)cc1Cl | inconclusive [falling, partial curve] | –
O=C(COC(=O)/C=C/c1ccc(Cl)cc1)Nc1ccc2[nH]c(=O)[nH]c2c1 | inconclusive [falling, single point] | –
Cn1cc(CN2CCC(C(=O)Nc3ccc(Oc4ccccc4F)cc3)CC2)cn1 | inactive | –
O=C(COc1ccc(Br)cc1F)NC1CCN(Cc2ccccc2)CC1 | inconclusive [falling, single point] | –
C/C(=N\NC(=O)c1cccc(S(=O)(=O)N2CCCC2)c1)c1ccc(F)cc1 | inactive | –
O=C(Nc1ccccn1)c1ccc(Cl)c([N+](=O)[O-])c1 | inconclusive [falling, partial curve] | –
COc1ccc(-c2cc(-c3nnc(COC(=O)C4CC4)o3)c3ccccc3n2)cc1OC | inactive | –
O=C1C(Cl)=C(Nc2ccc3cn[nH]c3c2)C(=O)c2ccccc21 | inconclusive [falling, partial curve] | –
CN(C)S(=O)(=O)c1cc(NC(=O)CN2CCN(c3ccc(O)cc3)CC2)ccc1Cl | inconclusive [falling, partial curve] | –
